In one data set the test system is SKMEL5 cells. Description: Cancer cell line viability assay of ADCs, SKMel5. The class given is cell-based, human. Particulars: SKMel5 melanoma cells, 7 days, compared to IgG conjugate or IgG control. The source says:
(§1) Cancer Cell Line Viability Assay

Data set [1] deals with MERTK-expressing M2 macrophages. Description: Macrophage viability assay, M2. As to conditions: 4 days of treatment in differentiating medium.
Data set [2] deals with MERTK-expressing M1 macrophages. Description: Macrophage viability assay, M1. Particulars: 4 days of treatment in differentiating medium.
For data set [3], the system named is MDA-MB-231-LM2 TNBC cells. Description: Metastasis assay, z10-MMAE. The class given is in vivo. Particulars: NSG mice, tail vein injection, i.p. dosing, compared to IgG-MMAE. Here is the method:
MDA-MB-231 LM2 TR triple negative breast cancer cells (received from Prof. Sohail Tavazoie, Rockefeller University, NYC) harboring a luciferase reporter gene (Minn et al., Nature. 2005 Jul. 28; 436(7050): 518-524) were cultured in D10F culture medium (DMEM Life Technologies, 11965-092, 10% FBS Sigma, F4135-500 ml, 1% NEAA Fisher, 11140-050, 1% sodium pyruvate Fisher, 11360-070, 1% Hepes Fisher, 15630-080 and 1% Pen/Strep Fisher, 15140-122. On the day of injection, cells were washed with DPBS (Fisher, 14190-144) and detached using 3 mL of 0.25% Trypsin-EDTA (Fisher, 25200-056) per 15 cm cell culture dish for 5 min in a 37° C. cell culture incubator. Detached cells were resuspended in 5 mL of D1F, counted using a hemocytometer and centrifuged at 220×g for 5 min at RT. The pellet was resuspended in DPBS at a concentration of 500,000 cells/mL. 8-week-old NSG female mice (Jackson, 005557) were exposed to a small animal heat lamp (Morganville Scientific, HL0100) for 2-3 minutes. 100 μL of the cell suspension (50'000 cells) was injected into the dilated lateral tail vein of female 8-week old NSG mice.
Lung colonization was monitored using IVIS imaging upon i.p. administration of 150 mg/kg D-luciferin (Thermofisher Scientific, Waltham, Mass.). […] Mann-Whitney U-test, one tailed was used to assess significance of the metastasis as measured by bioluminescence imaging.

A further data set addresses T1, MERTK (Homo sapiens, UniProt Q12866).
T1 sequence (Q12866 21-999): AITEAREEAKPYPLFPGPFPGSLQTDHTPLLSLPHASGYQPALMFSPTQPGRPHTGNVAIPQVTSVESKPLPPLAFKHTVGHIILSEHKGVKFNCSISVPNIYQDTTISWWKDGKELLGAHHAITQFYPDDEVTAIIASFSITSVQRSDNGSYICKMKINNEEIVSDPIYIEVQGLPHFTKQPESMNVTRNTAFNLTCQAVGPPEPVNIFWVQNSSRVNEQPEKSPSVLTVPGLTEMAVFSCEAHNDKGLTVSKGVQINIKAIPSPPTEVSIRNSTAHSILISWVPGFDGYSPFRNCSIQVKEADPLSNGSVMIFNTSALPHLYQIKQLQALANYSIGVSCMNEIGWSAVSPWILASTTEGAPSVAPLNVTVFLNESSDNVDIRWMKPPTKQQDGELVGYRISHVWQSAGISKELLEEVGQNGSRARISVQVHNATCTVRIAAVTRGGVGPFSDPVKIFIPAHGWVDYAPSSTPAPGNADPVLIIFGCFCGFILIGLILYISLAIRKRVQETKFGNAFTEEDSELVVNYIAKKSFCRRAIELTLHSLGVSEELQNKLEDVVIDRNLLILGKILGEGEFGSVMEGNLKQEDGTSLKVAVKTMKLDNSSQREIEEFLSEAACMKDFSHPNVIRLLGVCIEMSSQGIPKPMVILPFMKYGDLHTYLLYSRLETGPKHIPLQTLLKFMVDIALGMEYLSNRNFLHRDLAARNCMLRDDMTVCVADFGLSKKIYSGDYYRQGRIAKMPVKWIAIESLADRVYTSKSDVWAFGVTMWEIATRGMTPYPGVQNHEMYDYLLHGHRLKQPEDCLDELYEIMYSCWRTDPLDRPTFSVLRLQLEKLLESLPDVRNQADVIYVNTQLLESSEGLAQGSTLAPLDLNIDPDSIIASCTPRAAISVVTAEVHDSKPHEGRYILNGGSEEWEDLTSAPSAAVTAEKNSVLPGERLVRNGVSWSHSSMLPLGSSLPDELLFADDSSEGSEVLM
Put plainly: Internalization assay of z10 and ADCs (pHrodo, surface MERTK by flow cytometry). The class given is cell-based. The arrangement: stained with BV421-conjugated antibodies against MERTK to detect surface MERTK levels; endogenous in cells; host or cells: SKMEL5 human melanoma cells. Particulars: SKMel5 cells; for MERTK internalization: 6.7 nM pHrodo-labeled article; for MERTK degradation: 6.7 nM, surface MERTK stained with BV421-conjugated MERTK antibody. The protocol:
Internalization of the antibody was determined by flow cytometry detecting pHrodo fluorescence, which is minimal at neutral pH and maximal in acidic environments, such as the lysosome.
The cells were trypsinized, strained through a 70 μm filter, and resuspended in FACS buffer (2% BSA, 10 mM EDTA, 25 mM HEPES, 0.1% sodium azide in Ca/Mg-free PBS) containing Human TruStain FcX blocking reagent (Biolegend, 422301). Cells were sequentially stained with BV421-conjugated antibodies against MERTK to detect surface MERTK levels (Biolegend, 367603) for 20 min on ice, and then stained with Fixable Viability Dye (eFluor 780) (Thermofisher, 65-0865-14) for 20 min on ice.
The Mean Fluorescence Intensities (MFI) of pHrodo and BV-421 were analyzed with LSRFortessa flow cytometer (BD Biosciences) and compensated data were plotted with GraphPad Prism. The MFI of pHrodo was normalized with Degree of Labeling (DOL) of pHrodo-labeled IgG, z10, z10-MMAE and z10-SN-38. DOL was calculated from A280 and A560 absorbance of the protein after labeling, according to the formula provided by the manufacturer.

Another data set relates to RPMI8226 cells. Description: Cancer cell line viability assay of ADCs, RPMI8226. The class given is cell-based, human. As to conditions: RPMI8226 multiple myeloma cells, 7 days, compared to IgG conjugate or IgG control.
From the text: as §1

“Also recorded” adds a separate entry of the source.

B1: z10-MMAE (conjugate)
heavy: QVQLVQSGAEVKKPGASVKVSCKASGYTFTNYGMNWVRQAPGQGLEWMGWINTYTGEPTYADDFKGRVTFTTDTSTSTAYMELRSLRSDDMAVYYCARKSTVVSRYFDVWGQGTTVTVSSASTKGPSVFPLAPSSKSTSGGTAALGCLVKDYFPEPVTVSWNSGALTSGVHTFPAVLQSSGLYSLSSVVTVPSSSLGTQTYICNVNHKPSNTKVDKRV[human IgG1 Fc omitted]
light: DIQMTQSPSFLSASVGDRVTITCKASQDVGDAVTWYQQKPGKAPKLLIYWASTRHTGVPDRFSGSGSGTDFTLTISSLQPEDFATYYCQQYRSYPLTFGQGTKLEIKRTVAAPSVFIFPPSDEQLKSGTASVVCLLNNFYPREAKVQWKVDNALQSGNSQESVTEQDSKDSTYSLSSTLTLSKADYEKHKVYACEVTHQGLSSPVTKSFNRGEC
B1: the “cell viability (CellTiterGlo)” value with SKMEL5 cells is recorded as “decreased viability”. Further, in data set [1], the “viability of M2 macrophages (CellTiter-Glo 2.0)” value is reported as “neither z10 nor z10-MMAE nor z10-SN-38 nor the MERTK inhibitor UNC1062 affect the viability”. Further, the “viability of M1 macrophages (CellTiter-Glo 2.0)” value in data set [2] was “neither z10 nor z10-MMAE nor z10-SN-38 nor the MERTK inhibitor UNC1062 affect the viability”. In addition, the “lung colonization (bioluminescence imaging)” value in data set [3] is on record as “inhibits lung colonization”. In the data set with MERTK, the MERTK internalization result is “induce MERTK internalization” and the MERTK degradation entry is “degrade MERTK to a similar extent; also recorded: induce MERTK degradation”. The “cell viability (CellTiterGlo)” value in the data set with RPMI8226 cells is “decreased viability”.

B2: z10-SN-38 (conjugate)
heavy: B1 heavy
light: B1 light
Regarding B2, the “cell viability (CellTiterGlo)” value in the data set with SKMEL5 cells is listed as “decreased viability”. In data set [1], the “viability of M2 macrophages (CellTiter-Glo 2.0)” value was “neither z10 nor z10-MMAE nor z10-SN-38 nor the MERTK inhibitor UNC1062 affect the viability”. For the same molecule, the “viability of M1 macrophages (CellTiter-Glo 2.0)” value in data set [2] is reported as “neither z10 nor z10-MMAE nor z10-SN-38 nor the MERTK inhibitor UNC1062 affect the viability”. Moreover, in the data set with MERTK, the MERTK internalization entry is reported as “induce MERTK internalization” and the MERTK degradation result is given as “degrade MERTK to a similar extent; also recorded: induce MERTK degradation”. The “cell viability (CellTiterGlo)” value in the data set with RPMI8226 cells is listed as “decreased viability”.

These data come from patent publication US11242407B2, “High-affinity anti-MERTK antibodies and uses thereof” (Rgenix, Inc., priority 2019, dated 2022).
